Experimental data reported in PubChem BioAssay AID1345083 (National Center for Advancing Translational Sciences (NCATS), 2018).
Several values for one entry are separate records, joined by “and”; a condition that tells them apart may be missing. Equal values may be shown once. Out of some 94,000 compounds screened, about 6,200 (6.6%) were called active. This list was built around the results that the source calls inconclusive (neither active nor inactive); the mix of calls is not that of the screen. Calls follow the shape of the dose curve; as a rule, active = well fitted inhibition curve with a large enough effect; inconclusive = small, poorly fitted or top-dose-only effect; inactive = flat fitted curve, though single readings scatter. A potency beside an inconclusive call is a rough fit, not a confirmed value.

Assay: Cytotoxic Profiling in HEK 293 Cell Line of Diverse Libraries Using Quantitative High-Throughput Screening; also: nearly all actives have a fitted effect of over 60% in size
Conditions: HEK 293 viability, ATP luminescence (CellTiter-Glo), 48-72 h; series mostly up to 115 µM
Procedure, shortened: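 Viability of HEK 293 cells, plated at 250 cells/well, was judged by cellular ATP after compound treatment for 48 or 72 hr. Luminescence was imaged 10 min after CellTiter-Glo addition at room temperature.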
Potency is read from the fitted curve at half-maximal effect; tags tell the direction and shape of the fitted curve.

| Structure (SMILES) | Potency |
| --- | --- |
| O=C(CCc1cc2ccccc2[nH]c1=O)NCCN1CCc2ccccc2C1 | inactive |
| O=C1CN(C(=O)c2ccc(Cl)cc2)CC(O)CN1CCCc1ccccc1 (stereo unspecified) | inconclusive: 50.1 µM [inhibitor, partial curve, poor fit] |
| O=C1CCc2cc(NC(=O)c3cccc(C(F)(F)F)c3)ccc2N1 | inconclusive: 39.8 µM [inhibitor, partial curve] |
| CC(C)N[C@H]1CC(C)(C)[C@@H]2C[C@@](C)(O)CC[C@]12CCC(=O)NCCc1c[nH]c2ccccc12 | inconclusive: 79.4 µM [inhibitor, partial curve, poor fit] |
| O=C(Nc1cccnc1)[C@@H]1C[C@@H](c2ccc(F)cc2)N(CCOc2ccccc2)C1 | inconclusive: 89.1 µM [inhibitor, partial curve, poor fit] |
| O=C(NCCCc1ccccc1)C1CCc2nnc(-c3cccc(C(F)(F)F)c3)n21 (stereo unspecified) | inactive |
| CC1(C)C(=O)N(Cc2ccc(O)cc2)[C@H]2CN(CCCc3ccccc3)C[C@H]2[S+]1(=O)[O-] | inconclusive: 44.7 µM [inhibitor, partial curve, poor fit] |
| Cc1noc(C)c1S(=O)(=O)N1C[C@@H](C(N)=O)[C@H](C2CCN(C)CC2)C1 | inactive |
| NC(=O)c1ccc2c(c1)C1(CCN(CC3CC3)C1)CN2Cc1ccccc1 (stereo unspecified) | inconclusive: 112 µM [inhibitor, partial curve, poor fit] |
| CC(C)CNC(=O)N1CCC(c2noc(-c3ccccc3)n2)C1 (stereo unspecified) | inconclusive: 89.1 µM [inhibitor, single point] |
| O=C(Nc1cccc(-c2ccc(F)cc2)c1)C1CCCN(C(=O)c2cccnc2)C1 (stereo unspecified) | inconclusive: 15.8 µM [inhibitor, full curve, poor fit] |
| O=C(Nc1cc(-c2ccncc2)nn1-c1ccccc1)c1ccccc1 | inconclusive: 89.1 µM [inhibitor, single point] |
| CCOc1cccc(CN2CC(Oc3ccc(-c4noc(COC)n4)cc3)C2)c1 | inconclusive: 50.1 µM [inhibitor, partial curve, poor fit] |
| c1ccc2c(c1)CCN2C1CN(Cc2ccsc2)C1 | inconclusive: 79.4 µM [inhibitor, partial curve] |
| O=C(c1ccc(F)cc1)N1CCc2nc(-c3ccc(Cl)cc3)nc(-c3ccccc3)c2C1 | inconclusive: 50.1 µM [inhibitor, partial curve, poor fit] |
| O=C(c1cccs1)N1CCC(c2nc(-c3ccccc3)no2)C1 (stereo unspecified) | inconclusive: 35.5 µM [inhibitor, partial curve, poor fit] |
| COc1ccc(-c2noc([C@@H]3C[C@@H](O)CN3Cc3cccc(C#N)c3)n2)cc1 | inconclusive: 79.4 µM [inhibitor, partial curve, poor fit] |
| COc1ccc(C2(C(=O)N3CCCC(Cn4c(C)nc5cccnc54)C3)CCCCC2)cc1 (stereo unspecified) | inconclusive: 89.1 µM [inhibitor, single point] |
| COc1ccc(/C=C/CN2CC(=O)N(c3ccccc3C#N)CC2C)cc1 (stereo unspecified) | inconclusive: 50.1 µM [inhibitor, partial curve, poor fit] |
| COc1ccc(C(=O)NC2CCN(c3cc(-c4ccc(F)cc4)[nH]n3)C2)cc1 (stereo unspecified) | inconclusive: 50.1 µM [inhibitor, partial curve, poor fit] |
| COCCCNC(=O)C1CCN(C(=O)c2ccc(-c3cccs3)cc2)CC1 | inconclusive: 100 µM [inhibitor, single point] |

| Structure (SMILES) | Potency |
| --- | --- |
| CNC(=O)Nc1ccc(C)n(CC(=O)NCc2ccc(Cl)cc2)c1=O | inconclusive: 89.1 µM [inhibitor, partial curve, poor fit] |
| CCN1C(=O)CCC2(C(=O)NCC3CC3)CCCC=C12 (stereo unspecified) | inactive |
| Cc1nc2scc(CC(=O)NC(C)C)n2c(=O)c1-c1cc(C)n(-c2ccc(C(C)C)cc2)n1 | inactive |
| Cc1ccc(C(=O)NC2CCCN(c3ccc4nnc(C5CC5)n4n3)C2)cc1 (stereo unspecified) | inconclusive: 89.1 µM [inhibitor, single point] |
| COc1ccccc1C(=O)N1CCC(Cc2nc(-c3ccccc3)no2)CC1 | inconclusive: 44.7 µM [inhibitor, partial curve, poor fit] |
| Cc1ccc2c(c1)nc1n2[C@@H](CNS(=O)(=O)Cc2ccccc2)COC1 | inconclusive: 89.1 µM [inhibitor, partial curve, poor fit] |
| CC(C)NC[C@H]1COCc2nc3cc(S(C)(=O)=O)ccc3n21 | inactive |
| COc1ccc(C(=O)N2CCCCCCN(C)C(=O)[C@@H]3CCC[C@@H]32)c(OC)n1 | inactive |
| COc1ccc(C)cc1Nc1nc(-c2ccc(OC)c(OC)c2)no1 | inconclusive: 39.8 µM [inhibitor, full curve, poor fit] |
| COCCNC(=O)[C@H]1C[C@H](Oc2ccccc2)CN1Cc1ccc(C)o1 | inconclusive: 50.1 µM [inhibitor, partial curve, poor fit] |
| Fc1cccc(CN2CCNc3cnc(OCc4cccnc4)cc3C2)c1 | inconclusive: 100 µM [inhibitor, partial curve] |
| COc1ccc(NC(=O)c2ccc3c(c2)N(S(C)(=O)=O)CC3)cc1Cl | inconclusive: 50.1 µM [inhibitor, partial curve, poor fit] |
| COC(=O)[C@@H]1Cc2ncn(Cc3ccc(Cl)cc3)c2CN1C(=O)c1ccco1 | inconclusive: 126 µM [inhibitor, single point] |
| O=C(c1ccccc1F)N1CCN(CCn2nc3n(c2=O)CCCC3)CC1 | inactive |
| O=C(c1cc2ccccc2o1)N1CCC2(CCCN(Cc3ccccc3F)C2)C1 (stereo unspecified) | inconclusive: 56.2 µM [inhibitor, partial curve, poor fit] |
| O=C(Cn1nc2c(cc1=O)CCCCC2)NC1CCN(C(=O)c2cc3ccccc3[nH]2)CC1 | inconclusive: 79.4 µM [inhibitor, partial curve, poor fit] |
| CCOc1ccccc1C1NC(=O)N(CC(=O)Nc2cccc(CC)c2)C2=C1C(=O)OC2 (stereo unspecified) | inconclusive: 56.2 µM [inhibitor, partial curve, poor fit] |
| COc1ccc(CCN2Cc3cc(NC(=O)c4ccccc4)ccc3OC(C)C2=O)cc1 (stereo unspecified) | inconclusive: 89.1 µM [inhibitor, single point] |
| COc1cccc(-c2ccc(C(=O)N3CCC(C(=O)N4CCCCC4)CC3)cc2)c1 | inconclusive: 56.2 µM [inhibitor, partial curve, poor fit] |
| CCN1C(=O)C(CC(=O)NC2CCCCC2)Sc2ncccc21 (stereo unspecified) | inactive |
| COc1cccc(CN2Cc3nc(-c4ccncc4)ccc3OCC2=O)c1 | inconclusive: 89.1 µM [inhibitor, partial curve] |

| Structure (SMILES) | Potency |
| --- | --- |
| O=C(c1ccc(C(F)(F)F)cc1)N1CCCC2(CC(c3cccnc3)=NO2)C1 (stereo unspecified) | inactive |
| Cc1ccc(NC(=O)Cn2c(-c3cnccn3)nc(C)c(C)c2=O)cc1Cl | inconclusive: 79.4 µM [inhibitor, single point] |
| COCCn1c(C)nnc1-c1cc(-c2cccc(OC(F)(F)F)c2)ccn1 | inconclusive: 50.1 µM [inhibitor, partial curve] |
| CS(=O)(=O)N1CCCN(C(=O)CCc2c[nH]c3ccccc23)CCNC(=O)CC1c1ccccc1 (stereo unspecified) | inactive |
| OC[C@H]1CCN(Cc2ccc(-c3cccc(Cl)c3Cl)o2)C[C@@H]1O | inconclusive: 39.8 µM [inhibitor, partial curve, poor fit] |
| CCOC(=O)[C@H]1C[C@]2(CCCCN(C)C2=O)N(C(=O)c2cccs2)[C@H]1c1ccco1 | inactive |
| O=C(CCn1cccn1)N[C@@H]1CN(Cc2ccccc2)C[C@H]1CO | inactive |
| COc1ccccc1Cn1c(-c2cccc(Cl)c2)nc(C)c(CCO)c1=O | inconclusive: 50.1 µM [inhibitor, partial curve, poor fit] |
| CN(C)c1ccc(CN[C@H]2CO[C@H]3[C@@H]2OC[C@@H]3n2cc(CC3CCCCC3)nn2)cc1 | inconclusive: 100 µM [inhibitor, partial curve, poor fit] |
| Cc1ccc([S+](=O)([O-])N2CCCN(c3ccc4nnc(C5CC5)n4n3)CC2)cc1 | inconclusive: 50.1 µM [inhibitor, partial curve, poor fit] |
| O=C(c1nc(-c2ccc(Cl)cc2Cl)c2ccccn12)N1CCOCC1 | inconclusive: 79.4 µM [inhibitor, partial curve, poor fit] |
| COc1cc(OC)cc(-c2onc(C)c2C(=O)NC(C)c2ccccc2)c1 (stereo unspecified) | inconclusive: 79.4 µM [inhibitor, partial curve, poor fit] |
| COCCN1CCCCCC(O)c2cc(C(=O)NCCCN3CCCc4ccccc43)ccc21 (stereo unspecified) | active: 39.8 µM |
| CC(NC(=O)CCc1ccccc1)C(=O)N1CCN(c2ccccn2)CC1 (stereo unspecified) | inconclusive: 28.2 µM [inhibitor, full curve, poor fit] |
| COc1ccccc1-c1ncc(CNc2cc(C3CC(O)C3)ncn2)s1 (stereo unspecified) | active: 31.6 µM |
| CN(C)C(=O)c1ccnc(-c2nnc3ccc(Nc4ccc(F)c(Cl)c4)nn23)c1 | inactive |
| COc1ccc(C(=O)N2CCC3(CC2)CC(=O)c2ccc(Cl)cc2O3)cc1 | active: 50.1 µM |
| Cc1csc(NC(=O)c2ccc3c(c2)OCC(=O)N(C)C3)n1 | inactive |
| N#Cc1ccc(CN2CCC(c3nc4ccncc4[nH]3)C2)cc1 (stereo unspecified) | inactive and inconclusive: 89.1 µM [inhibitor, partial curve, poor fit] |
